Assays:
fresh bovine sperm = assay: Isolate gradient centrifugation with or without trypsin and soy-based trypsin inactivator, fresh bovine sperm; conditions: 10 μg/ml in 90% Isolate
trypsin = assay: Dose-response of soy-based inhibitor on detachment of confluent somatic cell monolayers

B1: soy-based trypsin inactivator: soy-based trypsin inhibitor product (Sigma Chemical Company) added to the 90% layer (protein, UniProt P01070 25-205, looked up)
Trypsin inhibitor A: DFVLDNEGNPLENGGTYYILSDITAFGGIRAAPTGNERCPLTVVQSRNELDKGIGTIISSPYRIRFIAEGHPLSLKFDSFAVIMLCVGIPTEWSVVEDLPEGPAVKIGENKDAMDGWFRLERVSDDEFNNYKLVFCPQQAEDDKCGDIGISIDHDDGTRRLVVSKNKPLVVQFQKLDKESL
effect on bovine sperm motility, viability and acrosomal integrity (fresh bovine sperm): no detrimental effect
minimal concentration to achieve complete inactivation of trypsin (trypsin): ~10 µg/mL

Source: patent US7405036B2, “Process for reducing pathogens in a biological sample and removing a sample pellet from a sample tube” (priority 2001, dated 2008)
